Experimental data: PMC4531073
No constants are given. Whether binding was seen depends on the method and setting. Binding seen in cells or lysates may run through a third protein. Some entries that bind do so weakly or less than the wild type.

Amino acid sequences for entries named in this document (tags omitted). A change or cut given only in a name is not applied to a line headed by its entry. Residues count along the entry.
UniProt Q9UNE7: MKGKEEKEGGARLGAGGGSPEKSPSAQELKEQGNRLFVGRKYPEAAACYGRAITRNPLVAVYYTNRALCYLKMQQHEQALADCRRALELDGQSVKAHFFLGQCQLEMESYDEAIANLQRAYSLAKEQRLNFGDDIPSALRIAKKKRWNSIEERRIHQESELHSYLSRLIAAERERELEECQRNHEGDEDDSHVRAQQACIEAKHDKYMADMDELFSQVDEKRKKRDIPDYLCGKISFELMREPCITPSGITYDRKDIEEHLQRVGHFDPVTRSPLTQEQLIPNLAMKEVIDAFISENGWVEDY
myc-CHIP^ΔUbox: residues 1-197 of Q9UNE7
myc-CHIP^ΔTPR: residues 142-303 of Q9UNE7
UniProt P56817, residues 46-501: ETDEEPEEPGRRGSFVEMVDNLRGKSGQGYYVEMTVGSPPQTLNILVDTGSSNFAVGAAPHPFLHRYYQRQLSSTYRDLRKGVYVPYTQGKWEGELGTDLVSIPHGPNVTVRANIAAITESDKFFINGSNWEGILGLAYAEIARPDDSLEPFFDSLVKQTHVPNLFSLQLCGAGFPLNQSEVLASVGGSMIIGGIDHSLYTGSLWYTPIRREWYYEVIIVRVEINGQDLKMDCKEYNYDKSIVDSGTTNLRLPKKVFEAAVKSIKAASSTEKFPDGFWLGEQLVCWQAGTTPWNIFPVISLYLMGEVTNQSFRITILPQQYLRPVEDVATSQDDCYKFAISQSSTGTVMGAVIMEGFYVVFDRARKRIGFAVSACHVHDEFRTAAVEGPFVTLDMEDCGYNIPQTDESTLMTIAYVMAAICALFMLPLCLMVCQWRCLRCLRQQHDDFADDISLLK

Columns and labels:
Test in all cases: co-IP; HEK 293 cells co-transfected with Flag-BACE1 and myc-CHIP wild type or mutant (2 μg each); lysis in NP-40 buffer (50 mM Tris-HCl pH 7.4, 150 mM NaCl, 1% NP-40) at 4 °C; IP with anti-myc antibodies and protein A agarose; Western blot with anti-flag antibodies
myc-CHIP wild-type = myc-CHIP wild-type (UniProt Q9UNE7)
myc-CHIP^ΔTPR = myc-CHIP^ΔTPR (UniProt Q9UNE7)
myc-CHIP^K30A = myc-CHIP^K30A (UniProt Q9UNE7)
myc-CHIP^H260Q = myc-CHIP^H260Q (UniProt Q9UNE7)
myc-CHIP^ΔUbox = myc-CHIP^ΔUbox (UniProt Q9UNE7)

Question: How did the binding (myc-CHIP wild-type) turn out when “3XFLAG-BACE1 (β-site APP-cleaving enzyme 1) (from UniProt P56817 46-501)” was run?
Answer: binds

Question: What about the binding (myc-CHIP^ΔTPR) of the same substance?
Answer: binds

Question: What about the binding (myc-CHIP^K30A) of the same substance?
Answer: binds

Question: And the binding (myc-CHIP^H260Q)?
Answer: binds

Question: What about the binding (myc-CHIP^ΔUbox) of the same substance?
Answer: no binding
